Whole data set: some 110,000 compounds, median “z-score” near -0.1, cut for the highest 2% near 2. The list shows a part of the results. Residues, ends and D or L forms follow the SMILES beside them. *: point of attachment. Boc = CC(C)(C)OC(=O)*

The target in the assay is Metabotropic glutamate receptor 8 (Rattus norvegicus) (UniProt P70579). Briefly: rat mGluR8 modulators via GIRK flux, primary screen, cell-based, thallium flux, HTS (AID 488969). The conditions noted are these: HEK293 rat mGluR8, GIRK (G protein-gated inwardly rectifying potassium channel) thallium flux, FluoZin2; at 10 µM; stronger effect = higher value; submaximal glutamate (EC20) added with thallium.
Sequence of UniProt P70579 (P70579 whole entry, looked up): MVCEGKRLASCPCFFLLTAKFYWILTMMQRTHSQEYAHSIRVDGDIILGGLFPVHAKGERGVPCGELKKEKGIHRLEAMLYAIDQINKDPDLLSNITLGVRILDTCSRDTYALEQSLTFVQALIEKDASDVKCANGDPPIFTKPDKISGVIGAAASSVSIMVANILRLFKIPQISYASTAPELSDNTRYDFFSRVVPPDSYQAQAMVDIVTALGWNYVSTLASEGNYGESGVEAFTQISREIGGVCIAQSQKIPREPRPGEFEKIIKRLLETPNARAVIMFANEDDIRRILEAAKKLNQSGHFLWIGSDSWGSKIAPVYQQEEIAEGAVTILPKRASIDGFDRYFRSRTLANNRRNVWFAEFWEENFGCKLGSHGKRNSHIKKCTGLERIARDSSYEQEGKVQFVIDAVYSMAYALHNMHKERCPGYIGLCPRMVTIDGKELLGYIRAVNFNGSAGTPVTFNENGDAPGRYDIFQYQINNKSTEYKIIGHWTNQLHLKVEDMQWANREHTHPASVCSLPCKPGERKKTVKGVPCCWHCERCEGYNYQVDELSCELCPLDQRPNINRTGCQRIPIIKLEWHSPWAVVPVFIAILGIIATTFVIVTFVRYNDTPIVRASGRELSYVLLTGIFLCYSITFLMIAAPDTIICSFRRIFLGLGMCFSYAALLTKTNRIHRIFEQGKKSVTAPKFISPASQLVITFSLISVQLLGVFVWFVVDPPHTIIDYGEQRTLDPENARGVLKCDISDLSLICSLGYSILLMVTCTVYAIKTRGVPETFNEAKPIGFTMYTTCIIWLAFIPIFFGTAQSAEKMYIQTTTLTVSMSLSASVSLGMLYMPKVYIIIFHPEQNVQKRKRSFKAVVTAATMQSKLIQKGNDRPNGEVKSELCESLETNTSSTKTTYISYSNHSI
Consider `Cc1cc(/C=C2\SC(=S)N(Cc3ccco3)C2=O)c(C)n1-c1cccnc1`, for which the z-score is -0.379.

Compound `COc1cc(/C=N/NC(=O)c2ccc(COc3cc(C)ccc3C(C)C)cc2)cc(OC)c1O` came in with a z-score of 0.637.

As to `O=C(Nc1cccc(-c2nc3ccccc3s2)c1)c1cc(-n2cnnc2)ccc1Cl`, the z-score was -0.00826.

`O=S(=O)(N/N=C/c1ccc2c(c1)OCCO2)c1ccc(Cl)cc1` displayed a z-score of -0.0904.

As to `CCN(Cc1ccccc1)C(=O)COC(=O)CNS(=O)(=O)c1ccc(C)cc1`, the z-score is -0.678.

Turning to `CCCCNC(=O)CCn1c(=S)[nH]c2cc3c(cc2c1=O)OCO3`, the z-score was -0.19.

Regarding `COc1ccc(C2C(=O)N(C3CCCCC3)CC(=O)N2Cc2ccco2)cc1` (centres undefined), the z-score was -0.04.

As for `O=C(NCc1cccnc1)c1cccnc1Sc1ccc(Cl)cc1`, the z-score is -0.442.

`COc1ccc(NC2=CC(c3ccc(F)cc3)N(c3ccc(OC)cc3)C2=O)cc1` (centres undefined) displayed a z-score of -0.217.

The compound `CC(=O)CCc1c(C)[nH]c2ccc(NC(C)=O)cc2c1=O` gave a z-score of 0.743.

Regarding `COc1ccc(/C=N/NC(=O)Nc2cccc3nsnc23)cc1`, the z-score was -0.371.

Consider `O=C(NCc1ccco1)c1ccccc1Nc1ccc(F)cc1`, for which the z-score worked out at 0.261.

`CCNC(=O)c1c(NC(C)=O)sc2c1CCCC2`: the z-score worked out at 0.0536.

For the compound `COc1ccc(S(=O)(=O)N2CCCCCC2)cc1`, the z-score was -0.509.

As for `CCOCCn1c(SCc2cccc(C)c2)nc2c1c(=O)[nH]c(=O)n2C`, the z-score is -0.361.

Compound `Cc1nc2ccccc2n1S(=O)(=O)N(C)C` registered a z-score of -0.361.

For the compound `CN(C)/C=C(\C(=O)c1ccc(Cl)cc1)c1nnnn1-c1ccc(Cl)cc1`, the z-score is -0.0457.

The compound `COc1cccc(Nc2nnc(SCN3C(=O)c4ccccc4C3=O)s2)c1` gave a z-score of 0.498.

In the case of `O=C(CC1NC(=O)NC1=O)Nc1ccccc1` (centres undefined), the z-score is -0.0926.

Consider `O=C1COc2ccc(C(=O)NCc3ccc4c(c3)OCO4)cc2N1`, for which the z-score was 0.0779.

`Cc1cc(C)cc(Oc2ccc(-c3nnc(-c4ccccc4)o3)cc2[N+](=O)[O-])c1` yielded a z-score of 0.197.

On to `O=c1c2ccccc2nc(-c2ccc(Cl)cc2Cl)n1CCCn1ccnc1`, for which the z-score is -0.354.

`CCOCCCn1cnc2c(c1=O)c1nc3ccccc3nc1n2-c1ccc(C)cc1` had a z-score of -0.457.

For `COc1ccc(CNC(=O)CCCOc2cc(=O)n(C)c3ccccc23)cc1`, the z-score is 0.0421.

Regarding `COc1ccc(NC(=O)CCC(=O)N/N=C/c2ccc([N+](=O)[O-])s2)cc1`, the z-score was -0.189.

On to `CCCS(=O)(=O)N1CCN(S(=O)(=O)c2ccc(F)cc2)CC1`, for which the z-score amounted to 0.369.

Turning to `O=C(NCc1ccccn1)c1n[nH]c2ccccc12`, the z-score amounted to 0.0289.

As to `CC1=CC2=NC(=O)/C(=C\c3cc(C)n(-c4ccc(F)cc4)c3C)C(=N)N2O1`, the z-score is -0.0835.

On to `CC(C)CC(NC(=O)OC(C)(C)C)C(=O)NC(C(=O)NC(C)C(N)=O)C(C)C` (stereo not drawn) (Boc-Leu-Val-Ala-NH2; configuration not given here), for which the z-score is 0.264.

`O=C(NCCc1csc(-c2cccnc2)n1)c1ccco1` registered a z-score of 0.0644.

`Cc1ccc(/C=C2\SC(=S)N(CCC(=O)NNC(=O)c3cccnc3)C2=O)cc1` displayed a z-score of -0.628.

Compound `Cc1ccc(NC2=C(Cl)C(=O)c3ccccc3C2=O)cc1` yielded a z-score of -0.618.

With `Cc1ccc(C(=O)NCCCN2CCOCC2)cc1N1CCCC1=O`, the z-score is -1.33.

Consider `O=C(OCc1cc2ccccc2[nH]c1=O)c1ccncc1`, for which the z-score is -0.917.

`CC(C)CC(=O)NC1(C(F)(F)F)C(=O)Nc2c1c(=O)n(C)c(=O)n2C` (centres undefined) came in with a z-score of 0.339.

For the compound `CCN(CC)c1ccc(N=Cc2ccc(N(CC)CC)cc2O)cc1`, the z-score worked out at 0.0973.

`Cc1cc(C)n2nc(SCc3nc4ccccc4[nH]3)nc2n1` showed a z-score of -0.307.

With `C=CCn1c(SCC(=O)N2CCN(c3ccc(F)cc3)CC2)nnc1-c1cccs1`, the z-score is -0.652.

Take `CC(C)(C)c1ccc(S(=O)(=O)CC(O)CSc2nc3c(cc2C#N)CCCC3)cc1` (centres undefined): the z-score was -0.146.

`Oc1cccc(-c2nc3ccccc3s2)c1`: the z-score was 0.361.

On to `CCNC(=S)Nc1ccc(Cl)cc1`, for which the z-score is -0.278.

In the case of `Cc1cnc(C(=O)Nc2nc(-c3ccccc3)cs2)cn1`, the z-score was 0.227.

In turn, `CC(C)(C)c1ccc(C(=O)NCC(=O)OCC(=O)Nc2ccc3c(c2)OCCO3)cc1` showed a z-score of 0.131.

For `CC1CC2=C(NC(=S)NC2c2ccc(F)cc2)/C(=C/c2ccc(F)cc2)C1` (centres undefined), the z-score is -0.0718.

Consider `S=c1[nH]nc(-c2cnccn2)n1-c1ccccc1`, for which the z-score came to 0.496.

As for `COC(=O)c1sc(N)c(C(=O)OC)c1COC(=O)CNS(=O)(=O)c1ccc(C)c(C)c1`, the z-score is -0.386.

The compound `CCOC(=O)n1c(=O)oc2ccccc21` registered a z-score of -0.195.

In turn, `Oc1ccc2ccccc2c1CN1CCN(c2ccccc2)CC1` came in with a z-score of -0.548.

In turn, `O=C(Nc1ccccc1)c1ccc2nsnc2c1` had a z-score of -0.000294.

`O=C1C=C(NCc2ccc(Cl)cc2Cl)C2(CCCCC2)O1` came in with a z-score of -0.359.

Compound `COC(=O)c1ccc(C(=O)OC)c(NC(=O)COC(=O)CC2CC3CCC2C3)c1` (centres undefined) had a z-score of -0.338.

Regarding `CCOC(=O)N1CCC(NC(=O)c2cccc3c2C(=O)N(CCOC)C3)CC1`, the z-score was -0.296.

In turn, `CC1(C)Cc2ccccc2-c2nnc(SCc3ccc(C#N)cc3)n21` had a z-score of -0.168.

Take `CCCCNC(=O)c1ccc(Cn2c(=S)[nH]c3c([nH]c4ccc(OC)cc43)c2=O)cc1`: the z-score was -0.139.

The compound `CCOc1ccc(-c2cc(C(=O)NCC3CCCO3)c3ccccc3n2)cc1` (centres undefined) showed a z-score of -0.12.

As for `COc1ccc(C(=O)COC(=O)CCn2nnc(-c3cccs3)n2)cc1`, the z-score is 0.141.

In turn, `C/C(=N\NS(=O)(=O)c1cccc([N+](=O)[O-])c1)c1cc2ccccc2o1` had a z-score of -0.274.

In turn, `COc1cccc(N2C(=O)C(Cc3c[nH]c4ccccc34)NC2=S)c1` (centres undefined) registered a z-score of -0.229.

Take `C=CCSc1nnc(NC(=O)CSc2nc3ccccc3[nH]2)s1`: the z-score was -0.258.

For `COc1ccc(C(=O)c2ccc(N(C)C)cc2)c(OC)c1`, the z-score is -0.297.

For the compound `Cn1nc(C(=O)Nc2nc3ccc(S(C)(=O)=O)cc3s2)ccc1=O`, the z-score was -0.896.

Consider `CC(O)(C#CCN1CCOCC1)c1ccccc1` (centres undefined), for which the z-score is -0.413.

On to `Cc1cccnc1NC(=O)C12CCC(C)(C(=O)O1)C2(C)C` (centres undefined), for which the z-score came to 0.266.

Compound `COc1ccnc(Nc2cccc(C)c2)c1C#N` came in with a z-score of -0.0324.

The compound `CCOc1ccc(NC(=O)CCC(=O)n2nc(C)cc2C)cc1` yielded a z-score of -0.163.

Consider `CN(C)CCN(C(=O)c1ccccc1Cl)c1nc2c(Cl)cccc2s1`, for which the z-score was -0.8.

`O/N=C1\CCC\C1=C/c1ccco1` came in with a z-score of 0.461.

`COc1ccc2nc(NC(=O)C3CCN(S(=O)(=O)c4cccnc4)CC3)sc2c1` came in with a z-score of -0.396.

The compound `O=[N+]([O-])c1cccnc1N1CCC(c2cc(-c3ccc(Cl)cc3Cl)n[nH]2)CC1` gave a z-score of -0.166.

On to `CCOC(=O)c1sc(NS(=O)(=O)c2ccc(C)cc2)nc1C`, for which the z-score is -0.406.

Compound `CC(C)OC(=O)NCN1C(=O)C2C3C=CC(C3)C2C1=O` (centres undefined) had a z-score of 0.436.

On to `O=C1CC(N(Cc2ccc3c(c2)OCO3)C(=O)Nc2ccc(F)cc2)C(=O)N1c1ccccc1` (centres undefined), for which the z-score is -0.162.

The compound `Cc1ccc(-n2c3nc(=O)[nH]c(=O)c-3cc3cc([N+](=O)[O-])ccc32)cc1` gave a z-score of -0.767.

On to `COc1ccc(CNC(=O)NC(C)(C)c2cccc(C(C)(C)NC(=O)NCc3ccc(OC)cc3)c2)cc1`, for which the z-score is -0.759.

`O=C(CN1C(=O)NC2(CCCCC2)C1=O)NCc1cccs1`: the z-score is 0.496.

For the compound `COc1ccc(NC(=O)CSc2nc3ncccc3[nH]2)cc1OC`, the z-score is -0.426.

In turn, `Cc1csc(SCC(=O)c2c(N)n(C)c(=O)n(C)c2=O)n1` displayed a z-score of -0.529.

Compound `CCOC(=O)c1ccccc1NS(=O)(=O)c1ccc(OC)cc1` came in with a z-score of -0.146.

Turning to `Cc1cc2c(cc1C)[n+](C)cn2CC(O)COCc1ccccc1` (centres undefined), the z-score was -0.104.

The compound `O=C(CNC(=S)N(CCCN1CCOCC1)Cc1cccs1)N1CCOCC1` showed a z-score of -0.293.

Compound `O=c1c2ccccc2nnn1CSc1nnc(-c2cccnc2)n1-c1ccccc1F` had a z-score of -0.219.

With `COc1cc(CNC(C)(C)CO)cc(Br)c1OCc1ccc(Cl)cc1Cl`, the z-score came out at 0.447.

In the case of `O=C1c2ccccc2C(=O)N1OCc1ccccc1`, the z-score is -0.335.

`Cc1c(NC(=S)NC(=O)c2cc3ccccc3o2)c(=O)n(-c2ccccc2)n1C` gave a z-score of -0.114.

For `Cc1cc(/C=C(\C#N)C(=O)NCC2CCCO2)c(C)n1-c1ccc(Cl)cc1` (centres undefined), the z-score is -0.63.

On to `N#Cc1nc(Cc2ccccc2)oc1NCc1cccnc1`, for which the z-score is 0.17.

`CCN(CC)Cc1cc(CCNC(=O)c2ccc(Cl)cc2)ccc1O` gave a z-score of 0.602.

`COc1ccc(Nc2ncccc2C(=O)Nc2ccccc2)cc1` returned a z-score of 0.0827.

Consider `CCCCCC(=O)Nc1ccc2ccccc2c1`, for which the z-score was -0.136.

The compound `CNC(=S)N/N=C/c1cccc(OCc2ccccc2F)c1` came in with a z-score of 0.523.

Regarding `COc1ccc(C(=O)Nc2sc(C)c(-c3ccccc3)c2C#N)cc1OC`, the z-score was -0.228.

Consider `Cc1ccccc1C(=O)c1cccn1CC(=O)NCC1CCCO1` (centres undefined), for which the z-score was -0.18.

`COc1ccc(C(C)=O)cc1CSc1nncn1-c1ccccc1` displayed a z-score of -0.205.

The compound `O=C(Nc1ccc([N+](=O)[O-])cc1)c1nc[nH]c1C(=O)NC1CCCCC1` had a z-score of -0.0461.

Compound `CCN(CC)CCNC(=O)c1ccc(N2CCCCC2)c(NS(=O)(=O)c2ccc(C)cc2)c1` came in with a z-score of 2.96.

In the case of `O=C(OC1CCCCC1)c1ccc(NC(=O)C2CCCCC2)cc1`, the z-score stood at 0.0485.

In turn, `COC(=O)c1ccc(NC(=O)COc2ccc(C3C(C#N)=C(N)Oc4c3ccc3ccccc43)cc2OC)cc1` (centres undefined) showed a z-score of -0.108.

`Cc1ccc(CCSc2ccc(C(C)C)cc2)cn1`: the z-score is -0.399.

For `CCOC(=O)c1nnn(-c2nonc2N)c1CS(=O)(=O)c1ccccc1`, the z-score is 1.2.

Take `S=C(NCCN1CCOCC1)Nc1ccccc1Cl`: the z-score was -0.238.

For the compound `Cc1c(N/N=C(\C#N)C(=O)c2ccccc2)c(=O)n(-c2ccccc2)n1C`, the z-score is 0.187.

In the case of `COc1ccc(CCNc2oc(COc3ccc(Br)cc3)nc2C#N)cc1OC`, the z-score is -0.269.

`COc1ccc(NC(=O)CN2c3cccc4cccc(c34)S2(=O)=O)cc1`: the z-score was -0.497.

Regarding `Cc1nn2c3c(cnc2c1-c1ccccc1)C(=O)CC(c1ccco1)C3` (centres undefined), the z-score is -0.497.

Regarding `CCCCC(=O)Nc1ccc(NC(=S)NC(=O)c2cccs2)cc1OC`, the z-score is 1.85.

In the case of `Cc1cc([N+](=O)[O-])c(N2CCC[C@@H]2C(=O)O)c([N+](=O)[O-])c1`, the z-score was -0.356.

`Cc1cccc(C(=O)NC(=S)Nc2ccc(S(=O)(=O)N(C)c3ccccc3)cc2)c1` gave a z-score of 1.39.

Consider `COCCCNC(=O)c1cn(CC(C)C)c(=O)c2c1c1ccccc1n2C`, for which the z-score is -0.0987.

Take `CCc1nc(SCC(=O)Nc2c(C)nn(C)c2C)c2cnn(-c3ccccc3)c2n1`: the z-score was -0.873.

The values are drawn from PubChem BioAssay AID488969 (Vanderbilt High Throughput Screening Facility, 2010).
